# In publication PMC12136788:
# This is one part of the list.
# T1: UNK ZnF1-3 (human, UniProt Q9C0B0 31-174)
# T1 sequence: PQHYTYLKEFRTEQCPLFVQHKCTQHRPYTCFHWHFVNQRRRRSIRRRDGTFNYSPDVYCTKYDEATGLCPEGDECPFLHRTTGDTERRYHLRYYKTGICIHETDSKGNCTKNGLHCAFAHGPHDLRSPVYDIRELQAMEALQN
# B1: chr11:77336104:77336105:-_ENSG00000074201_ENST00000525064|hu_mus|hu_hu_hu_mus_False|8_98 (ssRNA)
# RNA: GGGAGUUCUACAGUCCGACGAUCCUCACACAUUGCUGUGAACAUUGCCUCCAAUGCUGACUUAUCACUGGGCACAAAUCGAAAUUCAGAAAUGGGUUCAACAUCAUCAUUGUCUUCCUCAUCUUCAUCAUCAGCAAGUUCUUUCAACAGAGGAUUGAGCAUCA
# B2: chr3:95999270:95999271:+_ENSMUSG00000038486_ENSMUST00000035371|mus_hu|FALSE|FALSE (ssRNA)
# RNA: GGGAGUUCUACAGUCCGACGAUCCCCUCCCAGGGGUGCGAGGAAGAGGGCUACGUCCAGCAUGUGGGGAGUGAGGGACAAGGGCACAGGGCACACACUCAUACACUGGGCACUGGAGAAGGCAGUCUUUUGAGCACAGACACCCAACAGAGGAUUGAGCAUCA
# B3: chr4:33332862:33332863:-_ENSMUSG00000040128_ENSMUST00000049357|mus_mus|FALSE|FALSE (ssRNA)
# RNA: GGGAGUUCUACAGUCCGACGAUCUAUAUACAAAACACCACCACAGCUGCAGGGCAAAAUACAUACUUUCAUAACAAAACUAUAAUGUCCUCUCAAGUAUGAACAAUGUACACAUAAUACAUGGUAUACAGUAUUUACAAAAUACAACAGAGGAUUGAGCAUCA
# B4: chr12:48459454:48459455:-_ENSG00000079387_ENST00000551330|hu_hu|motif|central (ssRNA)
# RNA: GGGAGUUCUACAGUCCGACGAUCUGCCUUCUGUUCUUCAAUCUGGCGCAAUCUUUCUCGUGCUCGAGAAUCAUAAACACGGGUUAAUUCUUUGAUCCACAGCUCUGCCUGGAAGAAAGUAGAACUGGGAGUUGGAGUCUGGGACAACAGAGGAUUGAGCAUCA
# B5: chr2:104430758:104430759:+_ENSMUSG00000027176_ENSMUST00000028599|mus_mus|FALSE|FALSE (ssRNA)
# RNA: GGGAGUUCUACAGUCCGACGAUCGGGACUACAACGUACGCACCAGCCGGCAAAGGGAAGCUAGAAAAGGAAAAUUAAACUAAAGGCAAACCCCACCAAAACCAGGAACACUACCCCUGUCCCUCAGAGCCAAAGCCGCCGCCACAACAGAGGAUUGAGCAUCA
# B6: 75265068_75276136_4124_CDS_ENSG00000166348_ENST00000408019|human|control|control (ssRNA)
# RNA: GGGAGUUCUACAGUCCGACGAUCAGAAGUACGCACUGUUCUGGCUUCAUGGAGACCAUGCUCCAUUUCUGCUGUUGAAGUCUUUGAGAGACCAGGAUCAUGGGCUGAGUGCAACCUCCUCCCCAUGCCAUCUGCAGAGCCUGUCAACAGAGGAUUGAGCAUCA
# B7: 13947493_13955163_841_3pUTR_ENSMUSG00000068036_ENSMUST00000139666|mouse|control|control (ssRNA)
# RNA: GGGAGUUCUACAGUCCGACGAUCGUUUUAAACUAUCUGCAUAUAUCCUCAGUGUUCCACCUGAGUCAGGCCGCCCAUCUGAGCUCCGAAACUCUUGCAUUCUCUUCUCCAGUUUUUGCUGCCGCCGCCGUUUCAUGACAACUUCAACAGAGGAUUGAGCAUCA
# B8: chr3:119450855:119450856:-_ENSMUSG00000028134_ENSMUST00000029780|mus_hu|mus_mus_mus_hu_False|58_98 (ssRNA)
# RNA: GGGAGUUCUACAGUCCGACGAUCUGUGGUGCCACUAAGAGGUGUAUUUGCUGUCUGGACAGCUGUCACAGCUUGAAGAACUACUUGAGCACGUUGGUUUAAUGUAUUAUCUGUCUUUAGUUCUUUGUGAUUCGAGUACUGGAUCAACAGAGGAUUGAGCAUCA
# B9: chr5:38546887:38546888:-_ENSMUSG00000029126_ENSMUST00000031009|mus_mus|motif|central (ssRNA)
# RNA: GGGAGUUCUACAGUCCGACGAUCGACCAGCACGGAGACCUUAAACCUCUCGGUGACACCCUCGGUGAUGCUGACGGUGAACUCGGCGGUCUUGGGAGGACGUGCUUUUCCUUUUUUGCGAUCAGGUUCAUAUUCAGUCUUAGUCAACAGAGGAUUGAGCAUCA
# B10: chr1:163117127:163117128:-_ENSG00000143248_ENST00000313961|hu_mus|hu_hu_hu_mus_False|1_38 (ssRNA)
# RNA: GGGAGUUCUACAGUCCGACGAUCUGCUACAAAGGAUGUAACUCAACUCACAGGGCAACUUUUGGAAGCCUGACCAGAUGACUACUUGAUUAGCUCCUGAUAAAACUCAGAGCGCACAAAGCGGGGCAGAGAAUCCUUUUCCAUCAACAGAGGAUUGAGCAUCA
# B11: chr19:16406628:16406629:+_ENSMUSG00000024639_ENSMUST00000025541|mus_mus|motif|central (ssRNA)
# RNA: GGGAGUUCUACAGUCCGACGAUCGACACUUUGUAAGUCAAAGGGGUAUUCGAUGAUCCCUGUAGUGGGGACUCGAACUCGGAGCACGUCUUGUUGUGUAGGCAGAUAGGAAGGGUCGGCUACACGGUCCAAGUCAUUCAGAUACAACAGAGGAUUGAGCAUCA
# B12: 204494676_204495559_252_CDS_ENSG00000198625_ENST00000367182|human|control|control (ssRNA)
# RNA: GGGAGUUCUACAGUCCGACGAUCUUUAACAGUGAACAUUUCACCUUGCGCACCUGCUGCAUGCAAAAUCUUCAAAAGCGGCAGUUUUGGUCGUACCUGAUUGAUUUGUCCAGGAGAGAUCCUGCAAGCACUGUCAGAUGUUGACAACAGAGGAUUGAGCAUCA
# B13: chrX:140365796:140365797:-_ENSMUSG00000031285_ENSMUST00000033642|mus_mus|mus_mus_mus_hu_False|8_48 (ssRNA)
# RNA: GGGAGUUCUACAGUCCGACGAUCCUUCUCAUUACUCAGUGCCUGCAAGGUUCUGGUUCGGUAGAAGCUACAGUGGGCGCUGUGAGUGGGACUUGGAAACCCAUUCAUCCGGGAGCCUCGCAUGUUCCUAGAUGCUUUAUCUCUCAACAGAGGAUUGAGCAUCA
# B14: chr4:88367131:88367132:-_ENSMUSG00000070923_ENSMUST00000094993|mus_mus|motif|central (ssRNA)
# RNA: GGGAGUUCUACAGUCCGACGAUCUUGGUAAUUGCUUGCUUCCAAAAGUAAAUUCACACAGGUAUUGUCUGUUCUCAUGAAAUCGGCUGUCUGCACAUAGUUGAUGAGAUCCUGUGGUGUCAUCAGUGGAAAGCGAAUAUUCUUCAACAGAGGAUUGAGCAUCA
# B15: chr5:135702403:135702404:+_ENSMUSG00000002748_ENSMUST00000002825|mus_mus|FALSE|FALSE (ssRNA)
# RNA: GGGAGUUCUACAGUCCGACGAUCGUCACACAGGAACCAUAAGUUUUGUCCUUGCUUGGGCACAGUGGUCUCCACAGCUUCUAGUGCUGGUCCAUGGUGCGCAUUCACACUUGCAUUCUUGCCUAGGUUUGCUUUCUUACUUCGCAACAGAGGAUUGAGCAUCA
# B16: 43530377_43532656_477_3pUTR_ENSG00000166913_ENST00000353703|human|control|control (ssRNA)
# RNA: GGGAGUUCUACAGUCCGACGAUCAUAAGAUAUUUGUCCAACAGCUCCAGAACAUCAUUGCAGAUGUCCUGCAGUUCUGCCUCUAUCUUCUCACGGUACUCUUUGCCCAUCUGCUGCUUCUUCUCAUUCCUCUCUGUUUUCUGCCAACAGAGGAUUGAGCAUCA
# B17: chr11:108043965:108043966:-_ENSG00000149308_ENST00000278612|hu_mus|FALSE|FALSE (ssRNA)
# RNA: GGGAGUUCUACAGUCCGACGAUCGUUAUCUUGGCAAUCUGCUUGUGGCUGUGCAGCAGCUGGCGAUACAGUGUUAGUCUCAGUUUUCCUGUUUGCAGUUUCACUAGAGUCUGCUGACUCAGAAGCCUGAGGAUUAGUUUUAACCAACAGAGGAUUGAGCAUCA
# B18: chr7:7679991:7679992:-_ENSG00000106399_ENST00000396682|hu_hu|hu_hu_hu_mus_False|18_98 (ssRNA)
# RNA: GGGAGUUCUACAGUCCGACGAUCUGGGAUGAAUCUUUUCCAGCCUCCCCACGAAGCACACGGGCCGGUCGAUAUACUGUGGUAACAUGCUGGCGUUGACGCGCGCUUUGGGGAGCUCCAUCAUGUCCUCCAUGAUUCUGCCGCCAACAGAGGAUUGAGCAUCA
# B19: chr2:127988141:127988142:+_ENSMUSG00000027381_ENSMUST00000110341|mus_mus|FALSE|FALSE (ssRNA)
# RNA: GGGAGUUCUACAGUCCGACGAUCUGUCAAAAUUCAUCAGUGCAAAACGUAAAGGAAGCCAGGGAAACUGCAAUACAAAUGCUACAUACGCUGGGUUCUGACAUUAGUGAUGGGGACUAUACAGAGAUCAGUGCUGUUCACUAACAACAGAGGAUUGAGCAUCA
# B20: chr16:18804634:18804635:-_ENSG00000170540_ENST00000304414|hu_hu|FALSE|FALSE (ssRNA)
# RNA: GGGAGUUCUACAGUCCGACGAUCGUUUUUCUUUUCUUUUUGUUUGAGAAGUUUGUUUAUCUCCCUCUUGGCCAUUCCAAUGUACUUCAAAAUGAUUCCAUGUUGGUUUAGUCCAGGAAGCAAUAGUAAGGAAGUCACUAUCAGCAACAGAGGAUUGAGCAUCA
# B21: 90083140_90083260_1931_CDS_ENSMUSG00000032363_ENSMUST00000113059|mouse|control|control (ssRNA)
# RNA: GGGAGUUCUACAGUCCGACGAUCCACCCAUUUAUGGAGCUUGCCCUUGUACAGCAUGCCAUCAAACUGGCUACACUGGGUGUGACGGAAAGAGGGACGGUCCGGCGGGCAGGCUGGCAGGUUGCAGAGCUGGGACCGCUUCCUCAACAGAGGAUUGAGCAUCA
# B22: chr4:117558906:117558907:-_ENSMUSG00000033379_ENSMUST00000036380|mus_hu|motif|central (ssRNA)
# RNA: GGGAGUUCUACAGUCCGACGAUCUGGAGGAGCCGGUAAUAUAGAUGCCCCAGGCUGCCCCAACCACAGACAGGGAGAUAGCGGGGCCAAUGCCCAGGUUGGACCACAUGAAGGGCGAAGUCUCCGUCAGGAACCUGUUGUGGACAACAGAGGAUUGAGCAUCA
# Target: T1, UNK ZnF1-3
# Experiment: nsRBNS (natural sequence RNA bind-n-seq); RBNS binding buffer (assumed for nsRBNS): 25 mM Tris pH 7.5, 150 mM KCl, 3 mM MgCl2, 0.01% Triton X-100, 500 ug/ml BSA, 20 U/ml SUPERase-In, 4 C; UNK is unkempt and MSI1 is Musashi-1; names of the RNAs are library labels; protein concentration not given here; high values mean tight binding
row,Binder,binding signal [enrichment R]
1,B1,0.91
2,B2,1.49
3,B3,1.3
4,B4,0.873
5,B5,2.38
6,B6,0.663
7,B7,0.648
8,B8,0.754
9,B9,0.658
10,B10,1.24
11,B11,0.886
12,B12,0.722
13,B13,0.535
14,B14,0.976
15,B15,0.524
16,B16,0.539
17,B17,0.53
18,B18,0.836
19,B19,1.54
20,B20,0.654
21,B21,0.531
22,B22,0.932
